In PubChem BioAssay AID686979 (National Center for Advancing Translational Sciences (NCATS), 2013):
Out of some 420,000 compounds screened, about 50,000 (12%) were called active. Inconclusive results, whose numbers are uncertain, are shown with a selection of clear calls. The call rests on the fitted dose curve; in most records, active means well fitted inhibition curve with a large enough effect; inconclusive means small, poorly fitted or top-dose-only effect; inactive means flat fitted curve, though single readings scatter. Potencies of inconclusive entries are left out as doubtful fits.

Test: qHTS for Inhibitors of human tyrosyl-DNA phosphodiesterase 1 (TDP1): qHTS in cells in presence of CPT; further: nearly all actives have a fitted effect of over 55% in size
Settings: chicken DT40 Tdp1-/-;hTDP1 cells + 20 nM CPT, ATP luminescence, 48 h; activity change, negative = growth inhibition: at 46.2 µM (top of the series)
Summary of the method: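 Chicken DT40 Tdp1-/- cells complemented with human TDP1, 400 cells/well, exposed to compounds plus 20 nM camptothecin for at least 48 h at 37 C; viability read as ATP content by CellTiter-Glo luminescence.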
On the % scale 0 is the no-effect control and ±100 the full control effect; potency means the concentration at half of the fitted maximal effect; tags describe the fitted curve by direction and shape.

| SMILES | activity change, negative = growth inhibition | Potency |
| --- | --- | --- |
| Cc1cc(C)n2nc(SCCC(=O)NCc3ccccc3)nc2n1 | inactive: 14.7% | – |
| CCc1ccccc1NC(=O)Cn1nc(CC)n2c(cc3sccc32)c1=O | inactive: -20.8% | – |
| COc1cccc(/C=N/Nc2snc(SC)c2C#N)c1O | – | active: 2.91 µM |
| COc1ccccc1NC(=O)Cn1cnc2sc(C(=O)NCc3ccco3)c(C)c2c1=O | – | inconclusive [inhibitor, single point] |
| CC(C)CCN(C(=S)Nc1cccc(F)c1)C(C)c1cccs1 (centres undefined) | – | inconclusive [inhibitor, single point] |
| CC(NC(=O)c1cccs1)c1ccc(Cl)cc1 (centres undefined) | inactive: 0.236% | – |
| CC1CC(C)CN(CC(O)COC2CC(C)CC(C)(C)C2)C1 (centres undefined) | – | inconclusive [inhibitor, single point] |
| Cc1ccc(C(=O)Nc2ccc3ccccc3c2)cc1 | inactive: -10.8% | – |
| Cc1ccc(C)c(N2CCN(C(=O)CCn3c(=S)[nH]c4cc5c(cc4c3=O)OCO5)CC2)c1 | inconclusive: -30.5% [inhibitor] | – |
| Cc1nc(Nc2cccc(F)c2)c2oc3ccccc3c2n1 | – | inconclusive [inhibitor, single point] |
| O=[N+]([O-])c1cc(C=Nc2ccc3ccccc3c2)ccc1Br | – | active: 2.59 µM |
| Cc1cc(NS(=O)(=O)c2ccc(N3C(=O)C4C5C=CC(C5)C4C3=O)cc2)nc(C)n1 (centres undefined) | inactive: -1.65% | – |
| O=C(c1cc2ccccc2[nH]1)N(Cc1cccnc1)CC1CCCN(C2CCCCC2)C1 (centres undefined) | – | inconclusive [inhibitor, single point] |
| CC(C)CCn1c(=O)c2ccccc2n2c(CN3C(=O)NC4(CCC(C)CC4)C3=O)nnc12 (centres undefined) | – | inconclusive [inhibitor, single point] |
| CCOC(=O)N1CCC(NC(=O)CCc2nc(-c3ccc(C)cc3)no2)CC1 | – | inconclusive [inhibitor, single point] |
| COc1ccc(CNC(=O)C2CCCN(Cc3nc(-c4cccc(C)c4)oc3C)C2)cc1 (centres undefined) | – | active: 13 µM |
| CC1(C(=O)NS(=O)(=O)Cc2ccccc2C(F)(F)F)CCN1C(=O)C/C=C/c1ccccc1 (centres undefined) | – | inconclusive [inhibitor, partial curve] |
| Cc1ccc(-c2c3c(=O)n(C)c(=O)n(C)c3c3n2-c2ccccc2NC3c2ccc(C)cc2O)cc1 (centres undefined) | – | active: 20.6 µM |
| Cc1ccc(NC(=O)Cc2nn(C)c(=O)c3ccccc23)cc1F | – | active: 2.31 µM |
| Cc1cccc(N(CC(=O)NC(C)(C)C)C(=O)CS(=O)CC(=O)Nc2ccc3c(c2)OCO3)c1 (centres undefined) | inactive: 7.11% | – |
| C=CCN1C=C2C(=O)C(C)(OC(=O)CCc3ccccc3)C(=O)C=C2C=C1c1ccc(C#N)cc1 (centres undefined) | – | inconclusive [inhibitor, single point] |
| O=C(O)c1ccc(CN2C[C@@H](CO)O[C@@H](n3cnc4c(NCc5ccc(F)cc5)ncnc43)C2)cc1 | inactive: 3.14% | – |
| CC(=O)Nc1ccc(S(=O)(=O)Nc2ccc3c(c2)OCCO3)cc1 | – | inconclusive [inhibitor, partial curve, poor fit] |
| COc1c(CC=C(C)C)cc(C2CC(=O)c3c(O)cc(O)cc3O2)c(CC=C(C)C)c1O (centres undefined) | – | inconclusive [inhibitor, single point] |
| ClC(Br)=C(n1cnc2ccccc21)n1cnc2ccccc21 | – | inconclusive [inhibitor, single point] |

| SMILES | activity change, negative = growth inhibition | Potency |
| --- | --- | --- |
| C=CCCc1ccc(C#N)c(SCc2c(C(=O)OCC)c3cc(OC(C)=O)c(Br)cc3n2C)n1 | – | active: 20.6 µM |
| COc1ccc(-c2cc(C(=O)N3CCCCC3C)no2)cc1OC (centres undefined) | inactive: -2.72% | – |
| O=c1ccnc(Nc2ccc([N+](=O)[O-])cc2)[nH]1 | – | inconclusive [inhibitor, single point] |
| COc1cc2c(cc1OC)[C@@H](NC(=O)Cc1ccc(F)cc1)[C@H](OCc1ccccc1)C2 | – | inconclusive [inhibitor, single point] |
| CCN(CC)c1nc(N)c2c(N)nc(OC)cc2c1C#N | – | active: 14.6 µM |
| CCOc1ccc(NC(=O)Cn2c(=O)oc3cc(Cl)ccc32)cc1 | inconclusive: -31.3% [inhibitor] | – |
| COc1ccc(S(=O)(=O)N2CCCCCC2)cc1C(=O)N(C)CCOc1ccccc1 | – | inconclusive [inhibitor, single point] |
| CCCS(=O)(=O)c1c(S(=O)(=O)CCC)c2cnccn2c1C(=O)c1ccc(OC)cc1 | inactive: -9.55% | – |
| CCOc1cccc(CN(CC)CC2CCCN(CCc3cccc(OC)c3)C2)c1O (centres undefined) | – | inconclusive [inhibitor, single point] |
| N#Cc1cccc(N=c2ssnc2Cl)c1 | – | active: 3.26 µM |
| COc1ccc(CCN(C)CC(=O)Nc2cc(C)nc3ccccc23)cc1OC | – | inconclusive [inhibitor, single point] |
| COc1ccc(OCC(=O)Nc2cc(S(=O)(=O)N3CCCCC3)ccc2OC)cc1 | – | inconclusive [inhibitor, single point] |
| COC(=O)c1ccc(CSc2nnnn2-c2ccc(C)cc2C)o1 | – | inconclusive [inhibitor, single point] |
| CC1Cc2ccccc2N1C(=O)CSc1nn2c(=O)c(C(C)(C)C)nnc2s1 (centres undefined) | – | inconclusive [inhibitor, single point] |
| CC(Oc1ccccc1)C(=O)N1CCN(c2ccc(N3CCOCC3)nn2)CC1 (centres undefined) | inactive: 10.8% | – |
| O=C(CN(Cc1ccccc1)C(=O)c1cccc([N+](=O)[O-])c1)Nc1c(Cl)cc(Cl)cc1Cl | – | active: 8.2 µM |
| O=c1[nH]c(C2CCN(S(=O)(=O)c3ccc(C(F)(F)F)cc3)CC2)nc2c1nnn2Cc1cccc(F)c1 | – | inconclusive [inhibitor, single point] |
| Cc1onc(-c2ccccc2Cl)c1C(=O)OCn1nnc2ccccc2c1=O | – | active: 18.4 µM |
| Cc1ccc2c(cnn2C(=O)CCC(=O)NC2CCCC2)c1 | inactive: 0.0617% | – |
| O=C(CCC1CCCN(C(=O)c2ccc3c(c2)OCO3)C1)N1CCN(c2ccccn2)CC1 (centres undefined) | – | inconclusive [inhibitor, partial curve] |
| CN(C(=O)CSc1nc(-c2ccccc2)no1)c1ccc(F)cc1 | – | inconclusive [inhibitor, single point] |
| COc1cc(C2C3=C(CC(c4ccco4)CC3=O)Nc3ccccc3N2C(C)=O)cc(OC)c1OC (centres undefined) | inactive: -15.4% | – |
| O=C1c2ccccc2NC(c2ccccc2O)N1O (centres undefined) | – | inconclusive [inhibitor, single point] |
| CCOc1ccccc1C1C(C(=O)Nc2ccccc2)=C(C)Nc2nc(SCC(=O)c3ccc(C)cc3)nn21 (centres undefined) | – | active: 7.31 µM |
| Cc1ccc2cc3cc(C(=O)N4CCCCC4C)oc3nc2c1 (centres undefined) | – | inconclusive [inhibitor, partial curve] |

| SMILES | activity change, negative = growth inhibition | Potency |
| --- | --- | --- |
| COc1ccc(CN2C[C@@H](CO)O[C@@H](n3cnc4c(NCc5ccco5)ncnc43)C2)cc1 | inactive: -28.9% | – |
| COc1cccc(-c2sc3cc(OC)c(OC)cc3c2-c2ccc(OCCN3CCCCC3)cc2)c1 | – | active: 18.4 µM |
| CC1CCCCN1CCCNC(=O)CN1C(=O)c2cccnc2Oc2ccc(Cl)cc21 (centres undefined) | – | inactive |
| CCOC(=O)c1c(C)oc2cc(Br)c(OC(=O)N3CCOCC3)cc12 | inactive: -26.9% | – |
| O=Cc1c(N2CCN(c3ccccc3)CC2)nc2ccccn2c1=O | inactive: -12.1% | – |
| COc1ccc(CC(=O)NC(CC(=O)O)c2cccc([N+](=O)[O-])c2)cc1 (centres undefined) | inactive: 2.31% | – |
| Cc1ccccc1N1CCN(C(=O)c2ccccc2NC(=O)c2ccccc2C(=O)O)CC1 | – | inconclusive [inhibitor, single point] |
| O=C(c1ccc(Cl)cc1)N1CCN(CCc2ccncc2)CC1 | inactive: -12.5% | – |
| CCOc1ccc(-n2cc(C(=O)N3CCC(C)CC3)c3cc(OC)c(OC)cc3c2=O)cc1 | – | active: 16.4 µM |
| Cc1cc([N+](=O)[O-])nn1CCCC(=O)O | inactive: -8.37% | – |
| CS(=O)(=O)N1CCC(c2noc(-c3ccc(C(F)(F)F)cc3)n2)CC1 | – | active: 9.2 µM |
| CN(C)NC(=O)c1ccsc1NC(=O)c1ccc(S(=O)(=O)N2CCCC2)cc1 | – | inconclusive [inhibitor, partial curve] |
| O=C(NCc1ccc(F)cc1)C1CCCN1S(=O)(=O)c1cccc2nsnc12 (centres undefined) | inactive: 4.34% | – |
| Cc1cccc(C(=O)NCc2nnc3c4ccccc4c(-c4ccccc4)nn23)c1 | – | inconclusive [inhibitor, single point] |
| CCOc1cc(NC(=O)C2CCCO2)c(OCC)cc1NC(=O)C1CC1 (centres undefined) | inconclusive: -35% [inhibitor] | – |
| Cc1ccc(OCC(O)Cn2c(N)nc3c2c(=O)n(C)c(=O)n3C)cc1 (centres undefined) | – | inconclusive [inhibitor, single point] |
| O=C1OCCN1/N=C/c1ccc([N+](=O)[O-])o1 | – | active: 13 µM |
| CCOc1ccccc1NC(=O)Nc1nnc(N2CCCC(C)C2)s1 (centres undefined) | – | inconclusive [inhibitor, single point] |
| COc1ccccc1-c1nnc(NC(=O)c2ccc3ncsc3c2)o1 | – | inconclusive [inhibitor, single point] |
| CCOc1ccc(N(CC(=O)NC2CCCC2)C(=O)CCC(=O)Nc2nccs2)cc1 | inactive: -10.9% | – |
| COc1cccc(Nc2nc(-c3ccccc3)nc3ccccc23)c1 | – | active: 23.1 µM |
| COc1ccc(C(NC(=O)C2CCN(CCCc3ccccc3)CC2)c2cccs2)cc1 (centres undefined) | – | inconclusive [inhibitor, partial curve, poor fit] |
| CN(C)C(CNC(=O)c1cnc(Cl)c(Cl)c1)c1ccccc1 (centres undefined) | inactive: -11.5% | – |
| Cc1cccc2cc(CN(Cc3cccs3)Cc3nnnn3Cc3ccccc3)c(=O)[nH]c12 | – | inconclusive [inhibitor, single point] |
